# Assay results from the supplement of paper PMC6746778.
# This is one part of the list. Most values come without repeats; read them as rough.
# What was measured:
# Assay in all cases: proliferation Z-score within cell line (SRB, relative to all inhibitors screened on that line); triple-negative breast cancer lines and a kinase inhibitor library; SRB is the sulforhodamine B protein stain; higher = less growth inhibition (more resistant)
# Conditions in all cases: concentration: 1 µM; 4 days
# [1] = test system: Bt20
# [2] = test system: Bt549
# [3] = test system: HCC1143
# [4] = test system: HCC1806
# [5] = test system: HCC1937
# [6] = test system: HCC38
# [7] = test system: HCC70
# [8] = test system: Hs578T
# [9] = test system: MDA-MB-231
# [10] = test system: MDA-MB-435s
# [11] = test system: MDA-MB-436
# [12] = test system: MDA-MB-453
# [13] = test system: MDA-MB-468
# [14] = test system: SKBR7
# [15] = test system: SUM1315MO2
# [16] = test system: SUM149PT
# [17] = test system: SUM159PT
# [18] = test system: SUM185PE
# [19] = test system: SUM229PE
# [20] = test system: SUM52PE
# 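Further: Single-dose primary screen of a 378-member kinase inhibitor library in 96-well plates, with growth read as absorbance of protein-bound SRB dye after TCA fixation.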
SMILES,proliferation Z-score within cell line [1],proliferation Z-score within cell line [2],proliferation Z-score within cell line [3],proliferation Z-score within cell line [4],proliferation Z-score within cell line [5],proliferation Z-score within cell line [6],proliferation Z-score within cell line [7],proliferation Z-score within cell line [8],proliferation Z-score within cell line [9],proliferation Z-score within cell line [10],proliferation Z-score within cell line [11],proliferation Z-score within cell line [12],proliferation Z-score within cell line [13],proliferation Z-score within cell line [14],proliferation Z-score within cell line [15],proliferation Z-score within cell line [16],proliferation Z-score within cell line [17],proliferation Z-score within cell line [18],proliferation Z-score within cell line [19],proliferation Z-score within cell line [20]
CC(C)(C)c1cc(C=C(C#N)C#N)cc(Br)c1O,-0.107,0.249,0.345,0.336,0.445,0.226,0.278,0.319,0.62,0.469,0.128,0.45,0.395,-0.385,0.21,-0.163,0.205,-0.258,-0.252,0.00372
CC(C)(C)c1cc(C=C(C#N)C#N)cc(C(C)(C)C)c1O [Tyrphostin 9],-0.916,0.512,0.536,0.606,0.486,0.371,0.544,0.484,0.218,0.0883,0.378,0.698,-0.411,0.471,-0.293,0.316,0.386,-0.0125,0.856,-0.171
O=c1[nH]c2ccc(Cl)cc2c(N[C@@H]2CN3CCC2CC3)c1-c1nc2ccccc2[nH]1,-0.856,-0.92,-1.36,-1.75,-1.65,-1.64,-1.07,-1.05,-1.16,-1.4,-1.19,-0.261,-1.08,-0.394,-1.17,-1.21,-2.05,-0.0613,-1.63,-0.695
CCN1CCN(C(=O)Cc2ccc(Nc3ncc(F)c(Nc4ccc(C(=O)Nc5ccccc5Cl)cc4)n3)cc2)CC1 [Aurora A Inhibitor I],-0.747,-0.473,-0.987,-0.69,-1.78,-0.277,-1.91,-0.0166,0.0623,-0.413,-1.89,-1.38,-1.28,-0.853,-1.02,-0.169,-1.33,-0.233,-0.545,-0.899
COC[C@H]1OC(=O)c2coc3c2[C@@]1(C)C1=C(C3=O)[C@@H]2CCC(=O)[C@@]2(C)C[C@H]1OC(C)=O [Wortmannin],0.694,0.866,0.561,0.281,0.303,0.724,0.709,0.521,0.916,1.08,0.738,0.732,1.05,1.16,0.806,0.955,0.743,0.71,0.573,0.826
Cc1ccccc1-n1c(Cn2ncc3c(N)ncnc32)nc2cccc(C)c2c1=O,0.456,0.592,-0.00162,0.58,0.223,0.519,-1.85,0.457,0.899,0.804,-0.839,0.721,0.887,0.692,0.842,0.738,-0.813,0.799,0.639,0.848
Cn1cc(C2=C(c3cn(C4CCN(Cc5ccccn5)CC4)c4ccccc34)C(=O)NC2=O)c2ccccc21,-0.181,0.511,-1.61,-0.427,-0.224,-0.23,-0.653,0.537,0.964,0.575,-0.937,0.435,0.888,0.533,0.485,0.223,-0.156,0.397,0.0644,0.499
COc1ccc(N(C(=O)Oc2c(C)cccc2C)c2ccnc(Nc3ccc(N4CCN(C)CC4)cc3)n2)c(OC)c1,0.462,0.561,0.547,0.934,0.466,0.545,0.522,0.477,0.432,0.795,0.905,0.611,0.615,1.01,-0.568,0.663,0.525,0.482,0.00309,-0.313
